{
  "source": "PubChem BioAssay AID1159614",
  "about": "(National Center for Advancing Translational Sciences (NCATS), 2016)",
  "note": "The whole screen tested about 45,000 compounds, of which about 65 (0.1%) were called active. The call rests on the fitted dose curve; in most records, active means well fitted activation curve with a large enough effect; inconclusive means small, poorly fitted or top-dose-only effect; inactive means no such curve, though single readings can be large or run the other way. The list shows a part of the results.",
  "data": [
    {"target": "Galactocerebrosidase (Homo sapiens) (UniProt P54803)", "sequence (P54803 whole entry, looked up)": "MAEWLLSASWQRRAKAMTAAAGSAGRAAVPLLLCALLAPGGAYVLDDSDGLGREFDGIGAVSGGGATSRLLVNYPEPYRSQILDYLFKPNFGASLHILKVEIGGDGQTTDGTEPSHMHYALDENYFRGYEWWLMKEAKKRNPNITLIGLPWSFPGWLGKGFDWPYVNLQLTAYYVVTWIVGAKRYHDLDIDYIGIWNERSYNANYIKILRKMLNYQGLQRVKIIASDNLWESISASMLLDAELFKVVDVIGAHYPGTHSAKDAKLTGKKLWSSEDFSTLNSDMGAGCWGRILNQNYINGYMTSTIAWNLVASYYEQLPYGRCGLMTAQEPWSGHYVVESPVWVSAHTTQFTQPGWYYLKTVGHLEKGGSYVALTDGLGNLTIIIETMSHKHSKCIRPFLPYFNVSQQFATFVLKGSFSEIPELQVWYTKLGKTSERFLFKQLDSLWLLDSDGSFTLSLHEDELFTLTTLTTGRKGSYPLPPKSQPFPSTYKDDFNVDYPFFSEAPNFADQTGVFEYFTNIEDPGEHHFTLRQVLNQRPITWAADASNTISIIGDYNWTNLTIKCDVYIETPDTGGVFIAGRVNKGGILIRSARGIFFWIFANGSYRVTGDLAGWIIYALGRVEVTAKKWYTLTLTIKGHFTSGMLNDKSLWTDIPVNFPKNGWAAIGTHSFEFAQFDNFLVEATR", "assay": "A Novel Cell-Based Assay to Identify Small Molecules for B -Galactocerebrosidase; further: 0% is about no effect; nearly all actives have a fitted effect of over 65% in size", "conditions": "145M-Twi-hGALC-G270D cells (Twitcher mouse brain line with human GALC G270D), HMU-beta-Gal fluorescence, 48 h; series mostly up to 57.5 µM; activation: at the top concentration", "in_short": "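Live 145M-Twi cells (Twitcher mouse brain-derived, GALC-null) stably expressing human GALC-G270D, with a wild-type GALC line, were compound-treated. Residual GALC activity was then read as fluorescence from 0.1 mM final HMU-β-gal at pH 5.2; higher signal means activation.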", "values": [
      {"smiles": "COc1ccc(CNC(=O)c2ccc3c(c2)CCN3S(=O)(=O)c2ccccc2)cc1", "activation": "inactive: -9.11%"},
      {"smiles": "COCCCOc1ccnc(CS(=O)c2nc3ccccc3[nH]2)c1C", "note": "(stereo unspecified)", "activation": "inactive: 1.4%"},
      {"smiles": "CC1CCCN(S(=O)(=O)c2cc(C(=O)NCCc3ccccc3)n(C)c2)C1", "note": "(stereo unspecified)", "activation": "inactive: 0.386%"},
      {"smiles": "CCn1cc(C(=O)NCc2ccccc2Cl)c(=O)c2cc(S(=O)(=O)N3CCCCCC3)ccc21", "activation": "inactive: -8.78%"},
      {"smiles": "CCOc1ccc(Nc2oc(-c3ccc(COc4ccc(C)cc4)o3)nc2C#N)cc1", "activation": "inactive: -8.34%"},
      {"smiles": "COc1ccc(CNc2nc(-c3ccco3)nn2C(=O)c2ccccc2C)cc1", "activation": "inactive: -24%"},
      {"smiles": "Cc1ccc(-c2nc(CNC(=O)NC3CCCCC3)c(C)o2)cc1", "activation": "inactive: -9.51%"},
      {"smiles": "Cc1ccc(Cl)cc1NC(=O)c1ccc2nc(CCc3ccccc3)oc2c1", "activation": "inactive: -8.89%"},
      {"smiles": "CC(=O)c1cccc(NC(=O)Nc2cc3c(cc2N2CCCC2)n(C)c(=O)n3C)c1", "activation": "inactive: -5.97%"},
      {"smiles": "CCc1ccc(C(=O)Nc2cccc(-c3nc4cc(C(C)C)ccc4o3)c2)cc1", "activation": "inactive: -8.41%"},
      {"smiles": "Cc1ccc(NC(=O)Cn2c(=O)cc(-c3ccccc3)c3c(C)nn(C)c32)c(Cl)c1", "activation": "inactive: -13.9%"},
      {"smiles": "O=C(CSc1nnc(-c2ccc(Cl)cc2)c(-c2ccc(Cl)cc2)n1)NC1CCCC1", "activation": "inactive: -5.22%"},
      {"smiles": "O=C(CCCn1c(=O)[nH]c2ccsc2c1=O)N1CCN(c2ccc(Cl)cc2)CC1", "activation": "inactive: -2.25%"},
      {"smiles": "Cc1ccc(C)c(NC(=O)Cn2c(=O)n(CC(=O)NCCc3ccccc3)c(=O)c3ccccc32)c1", "activation": "inactive: -7.25%"},
      {"smiles": "CCOC(=O)c1sc2cccc(F)c2c1S(=O)(=O)Nc1ccccc1F", "activation": "inactive: -22.2%"},
      {"smiles": "COc1ccc(Cn2c(SCc3ccc(C(=O)NCc4cccs4)cc3)nc3ccncc32)cc1", "activation": "inactive: -5.5%"},
      {"smiles": "CCN(C(=O)c1cc(S(=O)(=O)N2CCCC2)cn1C)c1ccc(OC)cc1", "activation": "inactive: 3.27%"},
      {"smiles": "COc1ccc(NC(=O)c2nnn(CC(=O)Nc3cc(C)cc(C)c3)c2N)c(OC)c1", "activation": "inactive: -0.0181%"},
      {"smiles": "CCCCC(=O)Nc1ccc(C(=O)OCc2cc(=O)n3ccsc3n2)cc1", "activation": "inactive: -9.27%"},
      {"smiles": "O=S(=O)(c1ccccc1)c1nc(-c2ccco2)oc1SCc1ccc(F)cc1", "activation": "inactive: -19.9%"},
      {"smiles": "CC(C)NNC(=O)c1ccncc1", "activation": "inactive: -12.6%"},
      {"smiles": "CCOC(=O)CC(NC(=O)CCc1c(C)nc2cc(-c3ccccc3)nn2c1C)c1ccc(C)cc1", "note": "(stereo unspecified)", "activation": "inactive: -14.3%"},
      {"smiles": "O=C(Nc1cc(F)ccc1F)c1cnn2c(C(F)F)cc(-c3ccccc3)nc12", "activation": "inactive: -5.56%"},
      {"smiles": "COc1cc(OC)c(NC(=O)C(C)n2nc(-c3ccc(C)cc3)c3c(c2=O)CCCC3)cc1Cl", "note": "(stereo unspecified)", "activation": "inactive: -17%"},
      {"smiles": "N#Cc1ccccc1NC(=O)C(=O)NCC(c1cccnc1)N1CCc2ccccc21", "note": "(stereo unspecified)", "activation": "inactive: -29.7%"},
      {"smiles": "COC(=O)c1ccc(NC(=O)CSc2nc3cc4ccccc4cc3[nH]2)cc1", "activation": "inactive: -18.1%"},
      {"smiles": "Cc1ccc(S(=O)(=O)c2nnn3c2nc(N2CCN(c4cccc(C)c4C)CC2)c2ccccc23)cc1C", "activation": "inactive: -8.48%"},
      {"smiles": "COc1ccccc1-c1cc2nc(C)c(CCC(=O)NC3CCCCC3)c(C)n2n1", "activation": "inactive: -15.7%"},
      {"smiles": "O=C(c1ccccc1)c1ccc2nc(N3CCN(c4ccc(F)cc4)CC3)c3nncn3c2c1", "activation": "inactive: -6.65%"},
      {"smiles": "Cc1ccc(NC(=O)C2CCCN(c3ncnc4onc(C)c34)C2)cc1Cl", "note": "(stereo unspecified)", "activation": "inactive: -26.5%"},
      {"smiles": "Clc1cccc(-n2ncc3c(N4CCCCCC4)ncnc32)c1", "activation": "inactive: -12.1%"},
      {"smiles": "Cn1c(=O)n(C)c2cc(N3CCCC3)c(NC(=O)Nc3ccccc3)cc21", "activation": "inactive: -10.1%"},
      {"smiles": "Cc1cc(C(=O)N2CCN(c3cc(Cl)ccc3C)CC2)c2c(C)nn(-c3ccccc3)c2n1", "activation": "inactive: -12.4%"},
      {"smiles": "CCNc1sc(S(C)(=O)=O)nc1S(=O)(=O)c1ccc(C)cc1", "activation": "inactive: -18.1%"},
      {"smiles": "Cc1ccc(Cn2c(=O)n(Cc3ccccc3Cl)c(=O)c3cccnc32)cc1", "activation": "inactive: -1.39%"},
      {"smiles": "CCCCc1nn2c(=O)cc(COC(=O)c3cccs3)nc2s1", "activation": "inactive: -14.5%"},
      {"smiles": "COc1cc(OC)c(NC(=O)c2c(C)oc3ncnc(N4CCCCC4)c23)cc1Cl", "activation": "inactive: -13%"},
      {"smiles": "COC(=O)c1ccccc1NC(=O)Cn1c(=O)n(CCCCC(=O)NCc2ccc3c(c2)OCO3)c(=O)c2ccccc21", "activation": "inactive: -4.46%"},
      {"smiles": "Cc1ccc(N2CCN(c3nc4ccccc4c4nnc(C)n34)CC2)c(C)c1", "activation": "inactive: 0.357%"},
      {"smiles": "CCc1ccc(NC(=O)CCNC(=O)Cn2cnc3ccccc3c2=O)cc1", "activation": "inactive: -21.5%"},
      {"smiles": "Cc1ccc(CNC(=O)c2cccc(Nc3nc4ccccc4n4nnnc34)c2)cc1", "activation": "inactive: -11%"},
      {"smiles": "Cc1ccc(NC(=O)Cn2ncn3c(cc4ccccc43)c2=O)cc1C", "activation": "inactive: -1.34%"},
      {"smiles": "Cc1cccc(C)c1NC(=O)Cn1cc(S(=O)(=O)Cc2ccc(F)cc2)c2ccccc21", "activation": "inactive: -4.59%"},
      {"smiles": "Cn1c(=O)c2c(nc(N3CCOCC3)n2Cc2ccccc2)n(C)c1=O", "activation": "inactive: -12.9%"},
      {"smiles": "CCOC(=O)c1c(C)[nH]c(C)c1S(=O)(=O)N(C)CC(=O)N1CCN(c2cccc(Cl)c2)CC1", "activation": "inactive: -5.71%"},
      {"smiles": "Cc1ccc(CNC(=O)CN2C(=O)COc3ccccc32)cc1", "activation": "inactive: -12.7%"},
      {"smiles": "Cc1ccc(C(=O)c2cn(Cc3c(F)cccc3Cl)c3nc(C)ccc3c2=O)cc1", "activation": "inactive: -8.19%"},
      {"smiles": "COc1ccc(C(=O)Nc2nnc(SCc3cc(=O)n4cc(Cl)ccc4n3)s2)cc1", "activation": "inactive: -6.1%"},
      {"smiles": "Cc1cc(C)cc(NC(=O)Cn2c(=O)n(CC(=O)NCCc3ccccc3)c(=O)c3ccccc32)c1", "activation": "inactive: -21.2%"},
      {"smiles": "CCc1nc2ccc(C(=O)NCCc3ccc(OC)cc3OC)cc2nc1CC", "activation": "inactive: -17.8%"},
      {"smiles": "O=C(NCCc1ccc(Cl)cc1)c1ccc(CS(=O)(=O)Cc2ccc(Cl)cc2)o1", "activation": "inactive: -7.21%"},
      {"smiles": "Cc1noc(-c2ccc(-c3noc(-c4ccccc4)n3)cc2)n1", "activation": "inactive: -12.9%"},
      {"smiles": "CCc1ccc(C2CC(=O)c3c([nH]c(C(=O)OCc4ccc(C)cc4)c3C)C2)cc1", "note": "(stereo unspecified)", "activation": "inactive: -17.3%"},
      {"smiles": "CCC(C(=O)NCc1ccc2c(c1)CCN2C(=O)c1ccc(F)cc1)c1ccccc1", "note": "(stereo unspecified)", "activation": "inactive: -20.6%"},
      {"smiles": "CCOc1ccc(CCNC(=O)c2cc(Nc3ccc(C)cc3C)nc3ccccc23)cc1OCC", "activation": "inactive: -9.7%"},
      {"smiles": "CC(=O)c1cc(-c2ccccc2)n(CCC(=O)Nc2nc3c(C)cccc3s2)c1C", "activation": "inactive: -1.73%"},
      {"smiles": "CC1CCN(S(=O)(=O)c2ccc3[nH]cc(C(=O)NCc4ccc(F)cc4)c(=O)c3c2)CC1", "activation": "inactive: -12.7%"},
      {"smiles": "CCOC(=O)c1cc(-c2ccc(C)cc2)n(CCC(=O)Nc2cc(Cl)ccc2C)c1C", "activation": "inactive: 8.42%"},
      {"smiles": "Cc1ccc2c(c1)sc1nc(-c3cc4cc(Cl)ccc4oc3=O)cn12", "activation": "inactive: -18.7%"},
      {"smiles": "Cc1cccc(CSc2nc(=O)c3c(n2C)NC(=O)CC3c2cccc(O)c2)c1", "note": "(stereo unspecified)", "activation": "inactive: -10.4%"},
      {"smiles": "COc1cc2[nH]c(=O)n(Cc3ccc(C(=O)NCc4ccc(C)cc4)cc3)c(=O)c2cc1OC", "activation": "inactive: -18.9%"}
    ]}
  ]
}
